Laboratory results published in PubChem BioAssay (NCI).
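Grown in 96-well plates, cells were treated for 48 hours with each compound at five concentrations. Insufficient inhibition: endpoint recorded as highest concentration tested. GI50 marks 50% less growth. The concentration for full growth arrest is given as TGI.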

Test system: NCI-H322M lung
Test: inhibition of tumour cell growth, NCI panel, 48 h

| Structure (SMILES) | GI50 [µM] | TGI [µM] |
| --- | --- | --- |
| COc1ccc(NC(=O)Cn2c(/C=C/c3cccc(Br)c3)nc3ccccc3c2=O)cc1 | 13.6 | > 36 |
| COc1cc2oc(-c3cccc(C(=O)Nc4ccc(Cl)cc4)c3)cc(=O)c2c(OCCNC(=O)[C@H](CO)NC(=O)OC(C)(C)C)c1OC | 22.1 | > 100 |
